At least one read-out could not be matched to a standard name with certainty.
System: human secretion
Assay: Mucolytic activity in vitro: density of human secretion by thromboelastograph (method of Morandini et al.)
Conditions: 1 ml of a 10% solution

| SMILES | Percentage decrease of the curve versus the maximal amplitude (mucolytic activity index) (dilution 1/30) [%] | Percentage decrease of the curve versus the maximal amplitude (mucolytic activity index) (dilution 1/60) [%] |
| --- | --- | --- |
| COc1ccccc1OC(=O)C(CS)NC(=O)C(C)SC(=O)c1cccs1 (stereo not shown) [(8), 2-methoxyphenyl ester of N-[2-(2-thenoylthio)propionyl]cysteine] | 78 | 48 |
| COc1ccccc1OC(=O)CNC(C)=O [(1), 2-methoxyphenyl ester of N-acetlyglycine] | 78 | 55 |
| COc1ccccc1OC(=O)C(CS)NC(C)=O (stereo not shown) [(5), 2-methoxyphenyl ester of N-acetylcysteine] | 82 | 57 |
| CC(=O)N[C@@H](CS)C(=O)O [acetylcysteine, reference compound] | 71 | 22 |
| COc1ccccc1OC(=O)C(C)NC(C)=O (stereo not shown) [(3), 2-methoxyphenyl ester of N-acetylalanine] | 80 | 58 |
| COc1ccccc1OC(=O)C(CSCC(=O)O)NC(C)=O (stereo not shown) [(7), 2-methoxyphenyl ester of N-acetyl-S-carboxymethylcysteine] | 76 | 55 |
| COc1ccccc1OC(=O)C(CSC(C)=O)NC(C)=O (stereo not shown) [(6), 2-methoxyphenyl ester of N,S-diacetylcysteine] | 82 | 59 |
| COc1ccccc1OC(=O)C(C)NC(=O)C(C)SC(=O)c1cccs1 (stereo not shown) [(4), 2-methoxyphenyl ester of N-[2-(2-thenoylthio)propionyl]alanine] | 84 | 60 |
| COc1ccccc1OC(=O)C(CSCC(=O)O)NC(=O)C(C)SC(=O)c1cccs1 (stereo not shown) [(10), 2-methoxyphenyl ester of N-[2-(2-thenoylthio)propionyl]-S-carboxymehtylcysteine] | 74 | 41 |
| COc1ccccc1OC(=O)C(CSC(C)=O)NC(=O)C(C)SC(=O)c1cccs1 (stereo not shown) [(9), 2-methoxyphenyl ester of N-[2-(2-thenoylthio)propionyl]-S-acetylcysteine] | 75 | 43 |
| COc1ccccc1OC(=O)CNC(=O)C(C)SC(=O)c1cccs1 (stereo not shown) [Compound (2), 2-methoxyphenyl N-[2-(2-thenoylthio)propionyl]aminoacetate] | 82 | 62 |
